# Data from the BET-seq Pho4 binding data (Le et al. 2018).
# Some of the results follow. These are noisy estimates, calculated here from bound and input reads.
# Target: T1, Pho4 (S. cerevisiae) (UniProt P07270)
# T1 sequence: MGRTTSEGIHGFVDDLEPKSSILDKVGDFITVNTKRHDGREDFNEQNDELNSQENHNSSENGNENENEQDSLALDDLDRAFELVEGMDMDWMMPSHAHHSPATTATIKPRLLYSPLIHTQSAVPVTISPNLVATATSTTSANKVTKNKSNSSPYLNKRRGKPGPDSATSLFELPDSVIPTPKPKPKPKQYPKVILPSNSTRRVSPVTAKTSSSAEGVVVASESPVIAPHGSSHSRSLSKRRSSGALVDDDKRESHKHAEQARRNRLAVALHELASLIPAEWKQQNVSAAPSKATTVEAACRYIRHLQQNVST
# Experiment: relative binding free energy (BET-seq); higher = weaker binding
# Conditions: reference: library average
row,Sequence,relative binding free energy [kcal/mol]
1,GATGGCACGTGTTTAA,0.12
2,GCTGGCACGTGTGTGG,0.02
3,TAGAGCACGTGAGTGC,0.25
4,TTTAACACGTGGAAAG,0.16
5,TGGATCACGTGTGTTT,0.25
6,CGTGGCACGTGATGTC,-0.11
7,TGTATCACGTGAGTCA,0.29
8,ATTGCCACGTGGAATT,0.05
9,AGGTGCACGTGTATTG,-0.13
10,TCAATCACGTGGTAGG,0.14
11,TGTTGCACGTGAACTA,0.2
12,TGATCCACGTGAAGTG,0.29
13,TAGTTCACGTGTGATC,0.41
14,CGGGACACGTGTGATT,0.11
15,AGGTACACGTGTGGTC,0.11
16,TTGATCACGTGGTGCG,0.07
17,GTCTTCACGTGAGGTT,0.33
18,GGCGGCACGTGGAGTG,-0.12
19,TTGTACACGTGGGACG,0.03
20,TATTTCACGTGTGGAC,0.25
21,GGAGTCACGTGGGATG,-0.01
22,TGCAGCACGTGTAGTG,-0.02
23,GTTCGCACGTGTAGGC,0.03

row,Sequence,relative binding free energy [kcal/mol]
1,AGTATCACGTGTGGTC,0.2
2,TGGTTCACGTGAATTC,0.38
3,TTGGGCACGTGGCGGA,-0.21
4,CATAGCACGTGTTGGG,-0.2
5,TAACTCACGTGGTGTG,0.21
6,GTTGCCACGTGTGGAG,0.01
7,TCTGGCACGTGGGGTT,-0.16
8,GGGCGCACGTGGTATG,-0.11
9,AGGATCACGTGTGAAA,0.24
10,TGGCACACGTGACGGG,0.12
11,TAGTCCACGTGTGTTG,-0.05
12,TGAGTCACGTGGGTCG,-0.05
13,GAGAGCACGTGTAGGA,-0.04
14,GTAGGCACGTGGCGGC,-0.15
15,AGTGGCACGTGTCTTT,-0.12
16,GCTTTCACGTGAGTGT,0.25
17,GGAAGCACGTGTTTAA,0.1
18,TTTTGCACGTGCGACG,0.02
19,GTGGTCACGTGTGTCT,0.08
20,CCGGGCACGTGGGGGA,-0.36
21,AGGGTCACGTGTGAGC,0.14
22,TTACTCACGTGTCGGT,0.21
23,ATGTACACGTGCATTG,-0.03

row,Sequence,relative binding free energy [kcal/mol]
1,TTAATCACGTGAGCTG,0.34
2,GTATACACGTGGGATG,-0.15
3,GAAGTCACGTGCATGG,0.19
4,TTGGTCACGTGAAGTA,0.29
5,TTTCTCACGTGGGAAT,0.15
6,TGTAGCACGTGTACTT,-0.14
7,TTAGTCACGTGGGGTC,-0.06
8,GTAATCACGTGGTCGC,0.31
9,GGTTTCACGTGGATAC,0.25
10,TTGGGCACGTGAGACG,-0.01
11,AGCTGCACGTGTTATG,0.05
12,AGTTGCACGTGGGTGA,-0.11
13,AGGTTCACGTGAACAG,0.45
14,ATAATCACGTGTTATA,0.12
15,AAAGTCACGTGGAAAT,0.37
16,GAGTGCACGTGGAGAT,0.04
17,TAATGCACGTGTAGTT,0.07
18,GTTTACACGTGTCGGT,0.26
19,GTAGCCACGTGGTTTG,-0.06
20,TCGGTCACGTGGGAGG,0.08
21,AATTGCACGTGTGGTT,0.05
22,TTGGGCACGTGTGAAC,-0.14
23,TATAGCACGTGCGGGT,-0.1

row,Sequence,relative binding free energy [kcal/mol]
1,AAATCCACGTGGGTTT,0.05
2,CGAGTCACGTGATGAT,0.32
3,GAAGTCACGTGTGTCG,0.13
4,TTTCTCACGTGAGTGC,0.45
5,AGTCTCACGTGTATGA,0.27
6,ATCGGCACGTGGGGTG,-0.42
7,GAGGGCACGTGTGTTC,-0.06
8,TTATCCACGTGAGGGT,0.1
9,TGTCTCACGTGTTGTG,0.22
10,TTTAACACGTGGTAAC,0.06
11,TTCTTCACGTGGGAAT,0.17
12,GTTGTCACGTGTCTTG,0.04
13,GGGTACACGTGTCTAG,0.1
14,AGCAGCACGTGTGGTG,-0.1
15,TAGTGCACGTGGATGA,-0.14
16,GAGGTCACGTGGCTGG,0.18
17,GGGTGCACGTGATTGA,0.04
18,ACATGCACGTGGGTTG,-0.27
19,TAGTACACGTGAAGTG,0.1
20,GAGCGCACGTGGGGAG,-0.17
21,CGTGACACGTGGTTGT,-0.15
22,TGTTGCACGTGTGGTG,0.16
23,TTATACACGTGGACAG,0.2

row,Sequence,relative binding free energy [kcal/mol]
1,TGGGCCACGTGGGTGA,-0.18
2,CCTTTCACGTGAGTGG,0.35
3,TTCTGCACGTGGTCAG,-0.11
4,GTTAGCACGTGGTGGG,-0.1
5,ATAAACACGTGGGGGT,-0.24
6,AGATACACGTGGTGGT,-0.08
7,AAGGTCACGTGGTGCC,0.08
8,TGTTTCACGTGTCAGG,0.3
9,CGGGTCACGTGTTAGC,0.27
10,AGGTACACGTGGTAGT,-0.01
11,TTGCGCACGTGCGGTT,-0.06
12,TTTGGCACGTGGAGAG,-0.08
13,TTGGCCACGTGGGTGG,-0.15
14,TAATACACGTGAAGGG,0.24
15,TTAGGCACGTGGTCCG,-0.06
16,AAGGACACGTGCTAGT,0.18
17,CTAGGCACGTGGAATT,-0.05
18,AATGCCACGTGTGTTT,0.02
19,ATCGACACGTGGTATT,0.05
20,AGGGGCACGTGATCTG,-0.01
21,TTATTCACGTGTTTGA,0.24
22,TGCTACACGTGGTAAG,0.24
23,TAGGCCACGTGATAGG,0.04
